# Test results published in paper PMC4336329 (PLoS ONE, 2015).
# Hit rate of the full screen: of about 310,000 compounds, about 14,000 (4.5%) showed an effect of 50% or more. Effects have a minus sign here. The list shows a part of the results.
# Target: human ether-à-go-go-related gene (hERG) potassium channel (human, UniProt Q12809)
# Assay: primary screen, population patch clamp on CHO cells stably expressing hERG
# 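Note: peak tail current of the secondary pulse compared with the same well before compound.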
# human ether-à-go-go-related gene (hERG) potassium channel, sequence (Q12809 whole entry, looked up): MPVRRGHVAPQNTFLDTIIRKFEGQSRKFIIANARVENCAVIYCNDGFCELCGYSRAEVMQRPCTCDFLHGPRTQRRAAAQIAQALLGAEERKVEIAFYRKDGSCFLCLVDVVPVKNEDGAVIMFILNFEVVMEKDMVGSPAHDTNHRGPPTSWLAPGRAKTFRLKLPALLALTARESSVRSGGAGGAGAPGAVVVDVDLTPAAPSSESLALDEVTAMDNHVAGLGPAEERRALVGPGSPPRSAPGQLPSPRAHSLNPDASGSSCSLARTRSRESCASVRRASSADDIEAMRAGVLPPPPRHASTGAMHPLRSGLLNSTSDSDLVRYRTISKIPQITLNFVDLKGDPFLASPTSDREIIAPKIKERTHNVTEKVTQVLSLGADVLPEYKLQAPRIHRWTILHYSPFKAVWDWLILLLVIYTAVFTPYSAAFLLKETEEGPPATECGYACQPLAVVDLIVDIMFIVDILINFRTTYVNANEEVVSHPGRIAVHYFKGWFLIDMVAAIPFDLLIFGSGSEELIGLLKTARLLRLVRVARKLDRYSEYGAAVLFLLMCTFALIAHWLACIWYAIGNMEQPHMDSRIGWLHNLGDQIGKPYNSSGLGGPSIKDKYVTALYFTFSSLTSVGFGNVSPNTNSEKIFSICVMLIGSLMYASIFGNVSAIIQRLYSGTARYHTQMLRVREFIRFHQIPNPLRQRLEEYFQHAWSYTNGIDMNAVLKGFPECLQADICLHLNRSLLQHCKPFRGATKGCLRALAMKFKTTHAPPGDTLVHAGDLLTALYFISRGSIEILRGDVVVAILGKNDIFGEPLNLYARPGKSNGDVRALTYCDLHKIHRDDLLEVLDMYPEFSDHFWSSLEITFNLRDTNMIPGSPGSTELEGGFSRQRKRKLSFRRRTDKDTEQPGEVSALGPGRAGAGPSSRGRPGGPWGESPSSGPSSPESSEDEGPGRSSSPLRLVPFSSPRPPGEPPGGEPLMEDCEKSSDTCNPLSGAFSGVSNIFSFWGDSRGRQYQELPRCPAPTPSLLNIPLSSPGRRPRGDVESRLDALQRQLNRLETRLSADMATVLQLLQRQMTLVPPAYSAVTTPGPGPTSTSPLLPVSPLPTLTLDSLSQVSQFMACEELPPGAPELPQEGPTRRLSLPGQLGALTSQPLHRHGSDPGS
row,Structure (SMILES),"hERG current change (%, negative = inhibition) at 10uM [%]"
1,O=C(c1ccc2c(c1)OCO2)N1CCN(c2ccccc2)CC1,-10.9
2,COc1ccc(-n2c(C)cc(C(=O)CN3CCCCC3)c2C)cc1,1.6
3,O=C(/C=C/c1cccc(Br)c1)c1ccc2c(c1)OCO2,6
4,CN(C)CCN(C(=O)/C=C/c1cccs1)c1nc2c(F)cc(F)cc2s1.Cl,-47.8
5,CCC(C)(C)n1nnnc1C(c1cccnc1)N1CCCC(C)C1 (stereo not drawn),3.14
6,N#C/C(=C\c1ccc(Cl)cc1)c1nc(-c2ccco2)cs1,17.6
7,COc1ccc2cc(Br)ccc2c1CC(=O)NC(C)C,15.8
8,COc1ccc(CCN(Cc2nc3ccccc3c(=O)[nH]2)C(=O)c2ccco2)cc1OC,13.2
9,CC(C)c1ccc(S(=O)(=O)Nc2ccc(N3CCOCC3)cc2)cc1,-0.0665
10,O=C(CSc1ccc(-c2ccccn2)nn1)Nc1cccc(F)c1,-26.8
11,Cn1ccnc1SCC(=O)Nc1cccc(O)c1,4.2
12,CC(C)CC1(C)NC(=O)N(CC(=O)N2C(C)CCCC2C)C1=O (stereo not drawn),5.81
13,NC(=O)COc1ccc(NS(=O)(=O)Cc2ccccc2)cc1,19.3
14,O=C1N[C@@H](Cc2cn(S(=O)(=O)c3c(F)c(F)c(F)c(F)c3F)c3ccccc23)C(=O)N[C@H]1Cc1ccccc1,4.18
15,CC(C)COCc1ccc(O)c2ncccc12,13.7
16,CO/N=C/NC(=O)Cc1cn(-c2ncc(C(F)(F)F)cc2Cl)c2ccccc12,3.84
17,c1ccc(Cn2cc(CSc3ccccc3)nn2)cc1,-11
18,O=C(NNC(=O)c1ccc2c(c1)OCO2)NC12CC3CC(CC(C3)C1)C2,-3.25
19,Cc1ccccc1NC(=O)n1ncc2cc(Cl)ccc21,23.6

row,Structure (SMILES),"hERG current change (%, negative = inhibition) at 10uM [%]"
1,COc1ccccc1OCc1ccc(C(=O)N2CCCCC2)o1,2.22
2,O=C(CN(Cc1ccco1)C(=O)c1nsc(Cl)c1Cl)NC1CCCCC1,17.6
3,O=C(CN1CCN(Cc2ccccc2)CC1)N1CCCc2c1c(=O)oc1ccc(O)cc21,-14
4,Cc1oc(C(C)(C)C)cc1C(=O)Nc1ccc2c(c1)OCCO2,8.81
5,O=C(CSc1nnc(-c2ccccc2Br)o1)Nc1cccc2ccccc12,5.79
6,COc1ccccc1C(=O)Nc1ccc(S(=O)(=O)N2CCN(C)CC2)cc1,0.775
7,CC(C)(C)n1nnnc1CN(Cc1cccnc1)Cc1ccccc1Cl,-33
8,COc1ccc(CCNC(=O)CCC(=O)NC2CCCC(C)C2C)cc1OC (stereo not drawn),24.5
9,COc1ccc(S(=O)(=O)N(CCc2ccccc2)CC(=O)N/N=C/c2ccc3c(c2)OCO3)cc1,-2.88
10,C=CCN1C(=O)C(Cc2ccc(F)cc2)S/C1=N/N=C/c1ccco1 (stereo not drawn),14.2
11,Cc1csc(NC(=O)c2ccc(C)c(S(=O)(=O)N3CCOCC3)c2)n1,-20.1
12,COCC(C)NC(=O)c1cc(-c2ccc(O)cc2)on1 (stereo not drawn),0.634
13,Cc1ccc(F)cc1NC(=O)CSc1ncccn1,8.32
14,O=C(Nc1ccccc1-c1ccccc1)c1ccco1,-0.737
15,CC(Oc1ccc(F)cc1)C(=O)Nc1cccc(-c2nn[nH]n2)c1 (stereo not drawn),14.3
16,CCCN(CCC)CCCNC(=O)CN1C(=O)CSc2ccc(S(=O)(=O)N3CCOCC3)cc21,20.2
17,O=C(Nc1ccccc1C(=O)N1CCOCC1)c1ccco1,-6.53
18,NC(=O)C1CCN(C(=O)c2ccc3c(c2)S(=O)(=O)c2ccccc2C3=O)CC1,2.8
19,Cc1ccc(OCCNC(=O)Cc2ccc(F)cc2)cc1,-0.491

row,Structure (SMILES),"hERG current change (%, negative = inhibition) at 10uM [%]"
1,C[C@@H](C(=O)Nc1ccc2ccccc2c1)[C@H]1C[C@]1(C)[C@H](NS(=O)(=O)c1ccccc1)c1ccccc1,6.27
2,O=C(CN1CCN(c2ccccc2F)CC1)NCc1ccc(Cl)cc1,-19.1
3,CCOC(=O)C1=C(COC(=O)c2sccc2C)NC(=O)NC1C (stereo not drawn),-8.98
4,Cc1ccccc1Cn1cnc2c(NS(C)(=O)=O)c(C)c(C)cc21,7.89
5,O=C(O)C(=O)O.O=C(c1ccc(F)cc1)N1CCN(C2CC3CCC2C3)CC1 (stereo not drawn),-2.85
6,COc1ccc(Cn2c(=O)oc3ccc(C)cc32)cc1,1.22
7,CC1CCN(CCCNC(=O)c2cc3c(Cl)nc4ccccc4c3s2)CC1,-66.2
8,Cc1ccc(NS(=O)(=O)c2cc(C(=O)Nc3cccnc3)ccc2C)cc1,-14.1
9,CCCCC[C@H]1CN(Cc2ccccc2)C(=O)[C@@H]1CC(=O)NCc1ccc(OC)cc1,-56.4
10,CCOC(=O)Cn1c2ccc(F)cc2c2nc(C)sc21,-19.1
11,O=C(OCC#CCSc1nnc(-c2ccc(Br)cc2)o1)c1ccco1,11.9
12,CCCOC(=O)c1c(NC(=O)CCC(=O)O)sc2c1CCCCC2,-5.04
13,Cc1ccc2c(n1)sc1c(-c3ccccc3)c(C#N)c(N)nc12,6.31
14,O=c1ncc(F)c[nH]1,15.3
15,CC1(c2ccc3c(c2)OCO3)NC(=O)N(CC(=O)c2ccc[nH]2)C1=O (stereo not drawn),4.56
16,O=C(NCCCn1cccn1)C1CCC(=O)N(CCc2ccccc2)C1 (stereo not drawn),-10.3
17,CCc1nnc(NC(=O)CCC(=O)N2CCN(Cc3ccccc3)CC2)s1,11.7
18,Cc1nc(C(=O)N2CCc3c([nH]c4ccccc34)C2c2cc(F)ccc2F)cs1 (stereo not drawn),-3.27
19,Cn1c(NC(=S)Nc2ccccc2)nc2ccccc21,16.3
